# Reference: publication PMC4336329 (PLoS ONE, 2015)
# In all, about 310,000 compounds went through this assay and about 14,000 (4.5%) showed an effect of 50% or more. The effect is printed as a negative number. This is one part of the list.
# Target: human ether-à-go-go-related gene (hERG) potassium channel (human, UniProt Q12809)
# Assay: primary screen, population patch clamp on CHO cells stably expressing hERG
# 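Further: peak tail current of the secondary pulse compared with the same well before compound.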
# Sequence of human ether-à-go-go-related gene (hERG) potassium channel (Q12809 whole entry, looked up): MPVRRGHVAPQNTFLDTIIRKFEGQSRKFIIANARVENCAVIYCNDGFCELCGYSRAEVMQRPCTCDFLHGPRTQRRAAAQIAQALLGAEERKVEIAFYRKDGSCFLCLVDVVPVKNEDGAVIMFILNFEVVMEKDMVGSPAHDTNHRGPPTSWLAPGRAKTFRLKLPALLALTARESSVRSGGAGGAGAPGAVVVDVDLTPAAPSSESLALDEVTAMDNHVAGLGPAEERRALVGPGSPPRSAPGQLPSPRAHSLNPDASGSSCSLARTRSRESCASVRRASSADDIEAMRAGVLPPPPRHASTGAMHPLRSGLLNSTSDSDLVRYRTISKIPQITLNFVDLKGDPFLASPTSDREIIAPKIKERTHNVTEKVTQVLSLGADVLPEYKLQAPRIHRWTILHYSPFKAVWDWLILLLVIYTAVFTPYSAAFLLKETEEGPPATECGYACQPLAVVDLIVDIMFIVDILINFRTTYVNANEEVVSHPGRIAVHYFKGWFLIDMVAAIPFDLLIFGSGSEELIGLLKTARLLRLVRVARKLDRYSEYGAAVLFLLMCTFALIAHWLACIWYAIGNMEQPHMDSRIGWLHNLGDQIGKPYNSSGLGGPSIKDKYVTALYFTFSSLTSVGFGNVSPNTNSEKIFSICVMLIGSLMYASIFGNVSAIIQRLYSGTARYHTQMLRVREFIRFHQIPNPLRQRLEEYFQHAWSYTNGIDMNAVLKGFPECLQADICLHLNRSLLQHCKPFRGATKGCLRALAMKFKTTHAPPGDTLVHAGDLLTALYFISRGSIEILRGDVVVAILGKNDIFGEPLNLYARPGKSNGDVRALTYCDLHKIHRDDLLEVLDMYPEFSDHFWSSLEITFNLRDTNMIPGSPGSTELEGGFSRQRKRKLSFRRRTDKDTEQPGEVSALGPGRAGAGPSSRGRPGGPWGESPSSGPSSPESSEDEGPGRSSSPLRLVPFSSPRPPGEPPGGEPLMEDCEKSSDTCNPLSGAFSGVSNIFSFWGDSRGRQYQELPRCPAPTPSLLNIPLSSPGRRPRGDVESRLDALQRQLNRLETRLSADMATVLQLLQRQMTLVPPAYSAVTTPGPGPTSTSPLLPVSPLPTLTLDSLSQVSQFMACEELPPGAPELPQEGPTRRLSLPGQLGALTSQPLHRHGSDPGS
row,SMILES,"hERG current change (%, negative = inhibition) at 10uM [%]"
1,CCN(CC(=O)NCc1cccs1)c1nnnn1-c1ccccc1,-3.68
2,O=c1c2c3c(sc2nc2sc(C4CC4)nn12)CCCC3,-3.58
3,CC(C)Cn1c(SCC(=O)NC(=O)NC2CCCC2)nc2ccccc21,-8.51
4,O=C(NCc1ccc2c(c1)OCO2)c1cc(-c2ccccn2)nc2ccccc12,4.41
5,CCN(CC)CCn1c(=S)[nH]c2cc(C(=O)NCc3ccc(C)cc3)ccc2c1=O,-57.9
6,CSc1ccc(S(=O)(=O)N2CCC(C(=O)Nc3ccccc3C(F)(F)F)CC2)cc1,7.69
7,Cc1cccc(NC(=O)/C(C#N)=C\c2cc(C)n(-c3ccc(C(=O)O)cc3)c2C)c1,17.1
8,Cc1cc(C)cc(NC(=O)Nc2ccc(NC(=O)c3ccccc3O)cc2)c1,5.33
9,C=CCOC(=O)C1=C(C)NC(SCC(=O)N(CC)CC)=C(C#N)C1c1ccccc1 (stereo not drawn),-21.9
10,CC(C)(C)NC(=O)CSc1nnc(C2CC2)n1Cc1ccccc1,8.86
11,O=c1oc2ccccc2c2c1ncn2-c1ccccc1,-11.8
12,CCOc1ccccc1NC(=S)NC1CC2CCC1C2 (stereo not drawn),11.7
13,O=C(COC(=O)c1nc(Cl)ccc1Cl)c1ccc[nH]1,10.3
14,CC1CCN(c2cc(N3CCOCC3)c(F)cc2[N+](=O)[O-])CC1,-2.53
15,Cc1ccc(C)c(-n2cc(-c3ccc(Cl)cc3)nc2SCC(=O)NC2CCS(=O)(=O)C2)c1 (stereo not drawn),-12.2
16,O=S(=O)(Nc1ccc(Cl)cc1)c1ccc2c(c1)CCO2,-3.21
17,O=C(O)Cc1ccc2c(c1)N(S(=O)(=O)c1cccc(C(F)(F)F)c1)CC(C(=O)O)O2 (stereo not drawn),13.2
18,Br.Cn1c(=N)n(CC(=O)c2ccc(Br)s2)c2ccccc21,-6.86
19,O=C(CSc1ncnc2c1oc1ccccc12)N1CCCc2ccccc21,-4.36
20,C=CCNC(=O)c1cc(Cl)ccc1Cl,5.76
21,N#C/C(C(=O)N1CCCC1)=C1/N=C(N)c2ccccc21,17.2
22,COc1cccc(NC(=O)CN(C)C(=O)c2ccc(OCc3ccccc3)c(OC)c2)c1,-19.7
23,Nc1nc2nc(-c3ccccc3)cc(C(F)(F)F)c2s1,0.183

row,SMILES,"hERG current change (%, negative = inhibition) at 10uM [%]"
1,Cc1ccc2c(c1)/C(=N/O)CCS2,-4.75
2,COC(=O)NNC(=O)C(C)Oc1ccc(Cl)cc1Cl (stereo not drawn),-30.7
3,CCCC(C)C(=O)Nc1ccc(Cl)cc1Cl (stereo not drawn),-12.8
4,CCCCCCn1c(SCCN2CCOCC2)nc2c1c(=O)[nH]c(=O)n2C,-74.6
5,CCOc1ccc(S(=O)(=O)N2CCC(C(=O)NCc3cccnc3)CC2)cc1,-27.1
6,Cc1cc(C)n(-c2nnc3c4ccccc4n(C)c3n2)n1,-7.94
7,O=S1(=O)CCN2C(c3ccco3)=CSC2=N1,0.936
8,O=[N+]([O-])c1cc2c(cc1CN1CCN(c3ccccc3F)CC1)OCO2,4.24
9,CCOC(=O)C1=C(C)Nc2nc3ccccc3n2C1c1cccs1 (stereo not drawn),6.66
10,CN(Cc1cccs1)C(=O)CCCc1c[nH]c2ccccc12,-1.49
11,CCCN(Cc1cc2ccc(C)cc2[nH]c1=O)C(=O)c1ccccn1,-13.3
12,CC(C)c1nnc(NC(=O)CCC(=O)NCc2cccs2)s1,14.1
13,Cc1ccc(Oc2ncc(-c3ccc(Cl)cc3)cn2)cc1,9.42
14,Cc1nn(Cc2ccccc2)c(C)c1C(=O)O,-19.1
15,Cc1c(NC(=O)OCc2ccccc2)c(=O)n(-c2ccccc2)n1C,4.01
16,COc1ccc2c3c(cccc13)C(=O)CC2,9.97
17,CCc1ccc(C(=O)COC(=O)C2CCN(c3ccc(C(F)(F)F)cn3)CC2)cc1,-18
18,COc1ccc(Cc2n[nH]c(=S)n2NC(=O)Nc2ccc(C)cc2)cc1,8.9
19,CCC/C(O)=C1\C(=O)CC(C)(C)CC1=NCc1ccccc1,-21
20,COc1ccc(C(=O)NCCSCc2ccc(C)cc2)cc1,2.63
21,O=S(=O)(c1ccccc1)N1CN2CCN(C2)C1,14.7
22,O=C(CCN1CCN(c2ccccc2)CC1)Nc1ccccc1F,8.14
